# Assay results as given in the supplement of paper PMC8728848.
# Some of the results follow.
# How the values were obtained:
# Assay in all cases: glycan array binding signal (z-score within array); higher = stronger binding
# Details in all cases: glycan notation: IUPAC condensed, linker removed
# [1] = target: Fuc(a1-3)[Gal(b1-4)]GlcNAc
# Procedure, shortened: (§1)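 Glycan array binding is given as a within-array Z-score, which can be read as non-binding when negative. The arrays, 3228 of them, came from the Consortium for Functional Glycomics database and were retained only where the protein sequence was available. Z-scores were averaged across arrays of the same protein sequence at different concentrations or buffers and across linkers.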
# [2] = target: Fuc(a1-3)[Gal(b1-4)]GlcNAc(b1-4)Gal(b1-4)[Fuc(a1-3)]GlcNAc
# Procedure, shortened: as §1
# [3] = target: Fuc(a1-3)[Gal(b1-4)]GlcNAc(b1-4)Gal(b1-4)[Fuc(a1-3)]GlcNAc(b1-4)Gal(b1-4)[Fuc(a1-3)]GlcNAc
# Procedure, shortened: as §1
# [4] = target: Fuc(a1-3)[Gal3S(b1-4)]GlcNAc
# Procedure, shortened: as §1
# [5] = target: Fuc(a1-3)[GalNAc(b1-4)]GlcNAc
# Procedure, shortened: as §1
# [6] = target: Fuc(a1-4)GlcNAc
# Procedure, shortened: as §1
# [7] = target: Fuc(b1-3)GlcNAc
# Procedure, shortened: as §1
# [8] = target: Gal(a1-2)Gal
# Procedure, shortened: as §1
# [9] = target: Gal(a1-3)Gal
# Procedure, shortened: as §1
# [10] = target: Gal(a1-3)Gal(b1-3)GlcNAc
# Procedure, shortened: as §1
# [11] = target: Gal(a1-3)Gal(b1-4)Glc
# Procedure, shortened: as §1
# [12] = target: Gal(a1-3)Gal(b1-4)GlcNAc
# Procedure, shortened: as §1
# [13] = target: Gal(a1-3)Gal(b1-4)[Fuc(a1-3)]GlcNAc
# Procedure, shortened: as §1
# [14] = target: Gal(a1-3)GalNAc
# Procedure, shortened: as §1
# [15] = target: Gal(a1-3)[Gal(a1-4)]Gal(b1-4)GlcNAc
# Procedure, shortened: as §1
# [16] = target: Gal(a1-4)Gal(b1-4)Glc
# Procedure, shortened: as §1
# [17] = target: Gal(a1-4)Gal(b1-4)GlcNAc
# Procedure, shortened: as §1
# [18] = target: Gal(a1-4)GlcNAc
# Procedure, shortened: as §1
# [19] = target: Gal(a1-6)Glc
# Procedure, shortened: as §1
# [20] = target: Gal(b1-2)Gal
# Procedure, shortened: as §1
# [21] = target: Gal(b1-3)Gal
# Procedure, shortened: as §1
# [22] = target: Gal(b1-3)GalNAc
# Procedure, shortened: as §1
# [23] = target: Gal(b1-3)GalNAc(b1-3)Gal(a1-4)Gal(b1-4)Glc
# Procedure, shortened: as §1
# [24] = target: Gal(b1-3)GalNAc(b1-4)Gal(b1-4)Glc
# Procedure, shortened: as §1
# [25] = target: Gal(b1-3)GalNAc(b1-4)[Neu5Ac(a2-3)]Gal(b1-4)Glc
# Procedure, shortened: as §1
# [26] = target: Gal(b1-3)GlcNAc
# Procedure, shortened: as §1
# [27] = target: Gal(b1-3)GlcNAc(b1-3)Gal(b1-4)Glc
# Procedure, shortened: as §1
# [28] = target: Gal(b1-3)GlcNAc(b1-3)Gal(b1-4)GlcNAc
# Procedure, shortened: as §1
# [29] = target: Gal(b1-3)[Fuc(a1-4)]GlcNAc
# Procedure, shortened: as §1
# [30] = target: Gal(b1-3)[Fuc(a1-4)]GlcNAc(b1-3)Gal(b1-4)GlcNAc
# Procedure, shortened: as §1
# [31] = target: Gal(b1-3)[Fuc(a1-4)]GlcNAc(b1-3)Gal(b1-4)[Fuc(a1-3)]GlcNAc
# Procedure, shortened: as §1
# [32] = target: Gal(b1-3)[GlcNAc(b1-6)]GalNAc
# Procedure, shortened: as §1
# [33] = target: Gal(b1-3)[Neu5Ac(a2-6)]GalNAc
# Procedure, shortened: as §1
# [34] = target: Gal(b1-3)[Neu5Ac(a2-6)]GlcNAc(b1-6)Gal(b1-4)Glc
# Procedure, shortened: as §1
# [35] = target: Gal(b1-3)[Neu5Ac(b2-6)]GalNAc
# Procedure, shortened: as §1
# [36] = target: Gal(b1-4)GalNAc(a1-3)[Fuc(a1-2)]Gal(b1-4)GlcNAc
# Procedure, shortened: as §1
# [37] = target: Gal(b1-4)GalNAc(b1-3)[Fuc(a1-2)]Gal(b1-4)GlcNAc
# Procedure, shortened: as §1
# [38] = target: Gal(b1-4)Glc
# Procedure, shortened: as §1
# [39] = target: Gal(b1-4)Glc6S
# Procedure, shortened: as §1
# [40] = target: Gal(b1-4)GlcNAc
# Procedure, shortened: as §1
# [41] = target: Gal(b1-4)GlcNAc(b1-2)Man(a1-3)[Gal(b1-4)GlcNAc(b1-2)Man(a1-6)]Man(b1-4)GlcNAc(b1-4)GlcNAc
# Procedure, shortened: as §1
# [42] = target: Gal(b1-4)GlcNAc(b1-3)Gal(b1-4)Glc
# Procedure, shortened: as §1
# [43] = target: Gal(b1-4)GlcNAc(b1-3)Gal(b1-4)GlcNAc
# Procedure, shortened: as §1
# [44] = target: Gal(b1-4)GlcNAc(b1-3)Gal(b1-4)GlcNAc(b1-3)Gal(b1-4)GlcNAc
# Procedure, shortened: as §1
# [45] = target: Gal(b1-4)GlcNAc(b1-3)Gal(b1-4)[Fuc(a1-3)]GlcNAc(b1-3)Gal(b1-4)[Fuc(a1-3)]GlcNAc
# Procedure, shortened: as §1
# [46] = target: Gal(b1-4)GlcNAc(b1-3)GalNAc
# Procedure, shortened: as §1
# [47] = target: Gal(b1-4)GlcNAc(b1-3)[Gal(b1-4)GlcNAc(b1-6)]GalNAc
# Procedure, shortened: as §1
# [48] = target: Gal(b1-4)GlcNAc(b1-6)Gal(b1-4)GlcNAc(b1-6)GalNAc
# Procedure, shortened: as §1
# [49] = target: Gal(b1-4)GlcNAc(b1-6)GalNAc
# Procedure, shortened: as §1
# [50] = target: Gal(b1-4)GlcNAc(b1-6)[Gal(b1-3)]GalNAc
# Procedure, shortened: as §1
# [51] = target: Gal3S(b1-3)GalNAc
# Procedure, shortened: as §1
# [52] = target: Gal3S(b1-3)GlcNAc
# Procedure, shortened: as §1
# [53] = target: Gal3S(b1-3)[Fuc(a1-4)]GlcNAc
# Procedure, shortened: as §1
# [54] = target: Gal3S(b1-4)Glc
# Procedure, shortened: as §1
# [55] = target: Gal3S(b1-4)Glc6S
# Procedure, shortened: as §1
# [56] = target: Gal3S(b1-4)GlcNAc
# Procedure, shortened: as §1
# [57] = target: Gal3S(b1-4)GlcNAc6S
# Procedure, shortened: as §1
# [58] = target: Gal3S6S(b1-4)GlcNAc
# Procedure, shortened: as §1
# [59] = target: Gal3S6S(b1-4)GlcNAc6S
# Procedure, shortened: as §1
# [60] = target: Gal4S(b1-4)GlcNAc
# Procedure, shortened: as §1
# [61] = target: Gal4S6S(b1-4)GlcNAc
# Procedure, shortened: as §1
# [62] = target: Gal6S(b1-4)Glc
# Procedure, shortened: as §1
# [63] = target: Gal6S(b1-4)Glc6S
# Procedure, shortened: as §1
# [64] = target: Gal6S(b1-4)GlcNAc
# Procedure, shortened: as §1
# [65] = target: GalNAc(a1-3)Gal
# Procedure, shortened: as §1
# [66] = target: GalNAc(a1-3)GalNAc
# Procedure, shortened: as §1
# [67] = target: GalNAc(b1-3)Gal(a1-4)Gal(b1-4)GlcNAc
# Procedure, shortened: as §1
# [68] = target: GalNAc(b1-3)GalNAc
# Procedure, shortened: as §1
# [69] = target: GalNAc(b1-4)GlcNAc
# Procedure, shortened: as §1
# [70] = target: Glc(a1-4)Glc
# Procedure, shortened: as §1
# [71] = target: Glc(a1-6)Glc(a1-6)Glc
# Procedure, shortened: as §1
# [72] = target: Glc(b1-4)Glc
# Procedure, shortened: as §1
# [73] = target: Glc(b1-6)Glc
# Procedure, shortened: as §1
# [74] = target: GlcA(b1-3)Gal
# Procedure, shortened: as §1
# [75] = target: GlcA(b1-6)Gal
# Procedure, shortened: as §1
# [76] = target: GlcNAc(a1-3)Gal(b1-4)GlcNAc
# Procedure, shortened: as §1
# [77] = target: GlcNAc(a1-6)Gal(b1-4)GlcNAc
# Procedure, shortened: as §1
# [78] = target: GlcNAc(b1-2)Gal(b1-3)GalNAc
# Procedure, shortened: as §1
# [79] = target: GlcNAc(b1-2)Man(a1-3)[GlcNAc(b1-2)Man(a1-6)]Man(b1-4)GlcNAc(b1-4)GlcNAc
# Procedure, shortened: as §1
# [80] = target: GlcNAc(b1-3)Gal
# Procedure, shortened: as §1
# [81] = target: GlcNAc(b1-3)Gal(b1-3)GalNAc
# Procedure, shortened: as §1
# [82] = target: GlcNAc(b1-3)Gal(b1-4)Glc
# Procedure, shortened: as §1
binder,measurement,setting,value
LKITALY (Gibberella zeae) (protein) MGNFHESSNNIWLEDGHILHAECGNGEGDYVESTLDLDYYIGNDDGSFSWGGENFSGSASNITLDIEGDDNIPVLRAELNPMDGDPVEANVNLSERIGNDCGTLIFLA,glycan array binding signal (z-score),[1],-0.359
same,glycan array binding signal (z-score),[2],-0.354
same,glycan array binding signal (z-score),[3],-0.365
same,glycan array binding signal (z-score),[4],-0.363
same,glycan array binding signal (z-score),[5],-0.363
same,glycan array binding signal (z-score),[6],-0.36
same,glycan array binding signal (z-score),[7],-0.34
same,glycan array binding signal (z-score),[8],-0.354
same,glycan array binding signal (z-score),[9],-0.354
same,glycan array binding signal (z-score),[10],-0.346
same,glycan array binding signal (z-score),[11],-0.356
same,glycan array binding signal (z-score),[12],-0.368
same,glycan array binding signal (z-score),[13],-0.348
same,glycan array binding signal (z-score),[14],-0.357
same,glycan array binding signal (z-score),[15],-0.363
same,glycan array binding signal (z-score),[16],-0.357
same,glycan array binding signal (z-score),[17],-0.356
same,glycan array binding signal (z-score),[18],-0.345
same,glycan array binding signal (z-score),[19],-0.352
same,glycan array binding signal (z-score),[20],-0.358
same,glycan array binding signal (z-score),[21],-0.353
same,glycan array binding signal (z-score),[22],-0.345
same,glycan array binding signal (z-score),[23],-0.353
same,glycan array binding signal (z-score),[24],-0.358
same,glycan array binding signal (z-score),[25],-0.359
same,glycan array binding signal (z-score),[26],-0.357
same,glycan array binding signal (z-score),[27],-0.35
same,glycan array binding signal (z-score),[28],-0.355
same,glycan array binding signal (z-score),[29],-0.356
same,glycan array binding signal (z-score),[30],-0.337
same,glycan array binding signal (z-score),[31],-0.36
same,glycan array binding signal (z-score),[32],-0.346
same,glycan array binding signal (z-score),[33],-0.348
same,glycan array binding signal (z-score),[34],-0.353
same,glycan array binding signal (z-score),[35],-0.358
same,glycan array binding signal (z-score),[36],-0.353
same,glycan array binding signal (z-score),[37],-0.365
same,glycan array binding signal (z-score),[38],-0.357
same,glycan array binding signal (z-score),[39],1.85
same,glycan array binding signal (z-score),[40],-0.353
same,glycan array binding signal (z-score),[41],-0.328
same,glycan array binding signal (z-score),[42],-0.361
same,glycan array binding signal (z-score),[43],-0.345
same,glycan array binding signal (z-score),[44],-0.358
same,glycan array binding signal (z-score),[45],-0.358
same,glycan array binding signal (z-score),[46],-0.361
same,glycan array binding signal (z-score),[47],-0.345
same,glycan array binding signal (z-score),[48],-0.342
same,glycan array binding signal (z-score),[49],-0.356
same,glycan array binding signal (z-score),[50],-0.355
same,glycan array binding signal (z-score),[51],1.22
same,glycan array binding signal (z-score),[52],4.13
same,glycan array binding signal (z-score),[53],-0.359
same,glycan array binding signal (z-score),[54],2.59
same,glycan array binding signal (z-score),[55],2.82
same,glycan array binding signal (z-score),[56],2.74
same,glycan array binding signal (z-score),[57],2.96
same,glycan array binding signal (z-score),[58],-0.312
same,glycan array binding signal (z-score),[59],3.55
same,glycan array binding signal (z-score),[60],1.22
same,glycan array binding signal (z-score),[61],-0.312
same,glycan array binding signal (z-score),[62],-0.354
same,glycan array binding signal (z-score),[63],-0.342
same,glycan array binding signal (z-score),[64],2.01
same,glycan array binding signal (z-score),[65],-0.357
same,glycan array binding signal (z-score),[66],-0.351
same,glycan array binding signal (z-score),[67],-0.36
same,glycan array binding signal (z-score),[68],-0.36
same,glycan array binding signal (z-score),[69],-0.349
same,glycan array binding signal (z-score),[70],-0.352
same,glycan array binding signal (z-score),[71],-0.359
same,glycan array binding signal (z-score),[72],-0.359
same,glycan array binding signal (z-score),[73],-0.368
same,glycan array binding signal (z-score),[74],-0.337
same,glycan array binding signal (z-score),[75],-0.349
same,glycan array binding signal (z-score),[76],-0.363
same,glycan array binding signal (z-score),[77],-0.358
same,glycan array binding signal (z-score),[78],-0.343
same,glycan array binding signal (z-score),[79],-0.362
same,glycan array binding signal (z-score),[80],-0.348
same,glycan array binding signal (z-score),[81],-0.356
same,glycan array binding signal (z-score),[82],-0.354
